In experiment [1] the target is T1, full-length WDR5 (UniProt P61964). Briefly: sedimentation velocity analytical ultracentrifugation.
Experiment [2] deals with T1, full-length WDR5. Briefly: sedimentation velocity analytical ultracentrifugation, c(s) distribution of the mixture with WDR5.
In experiment [3] the target is WDR5-RbBP5-Ash2L subcomplex (UniProt P61964; Q15291; Q9UBL3 1-534). Kind of experiment: sedimentation analysis.
Experiment [4] deals with T1, full-length WDR5. Briefly: sedimentation velocity analytical ultracentrifugation, c(s) distribution of the mixture with WDR5. This is another data set of the same source.

From patent publication US20130203167A1 (SYRACUSE UNIVERSITY, published 2013) come the findings set out here.

B1: MLL^3811, polypeptide construct consisting of […] of MLL1 (enzyme)
chain: not shown
As to B1, the binding result with full-length WDR5 [1] is listed as “no binding (tested: 1:1 stoichiometric ratio)”.

B2: MLL^3745 with E-23 of SEQ ID NO. 26 replaced with alanine (E-3767 on MLL1) (enzyme)
chain: not shown
notes: The result sentence calls this residue 'glutamine'
As to B2, the binding result in the experiment with full-length WDR5 [2] is “binds”.

B3: MLL^3745(R3765A) (enzyme)
chain: not shown
notes: also called MLL1(R3765A) variant; 26 replaced with alanine
Consider B3, for which the binding result in experiment [3] was “no binding”.

B4: MLL^3745 with S-19 of SEQ ID NO. 26 replaced with alanine (printed as corresponding to S-3762 on MLL1) (enzyme)
chain: not shown
In the case of B4, in the experiment with full-length WDR5 [4], the binding result was “binds”.
